Measured values published in the RNAGym collection of RNA variant scans (doi:10.7554/elife.90254).
The source gives no read counts; variants with many changes may rest on few reads.

B1: LINE1-full (parent)
chain: UACGUAGGUGGUUUUCCCCUGAUAGUGCUAAGGGGGCCUGGAAGUUUGGACUGGGCAGAGCUCAACACAGCGUGGCAAAGUGGCUGUGGCUAGACUGCCUCUCUGGAUUCCUCGUCACUCAGCAGGGCAUCUCUGAGAGAAAUGCC

Variants of: B1
Assay: self-cleavage, relative activity (ratio to wild type); higher = more cleavage; in vitro, sequencing; the parent is a self-cleaving ribozyme
U13C U29A A50G A77U A79G U112C G125A showed a self-cleavage of 2.87.
Variant U13C U29A A92G C99U U104A U109C has a self-cleavage of 0.
In the case of U13C U29A G72A U115C, the self-cleavage is reported as 0.63.
With U13C U29A U46C U73C G83A A124G the self-cleavage was 2.4.
With U13C U29C A57U the self-cleavage was 0.36.
U13C U29C A78G G126A A142G showed a self-cleavage of 0.57.
U13C U29C C51A U115A gave a self-cleavage of 0.84.
Variant U13C U29C U52A U85C has a self-cleavage of 0.6.
With U13C U29C U81C C110U A142G the self-cleavage was 1.84.
With U13C U29C U91G the self-cleavage was 0.15.
In the case of U13C U29G G35C, the self-cleavage is reported as 1.17.
U13C U39A A77C U143C gave a self-cleavage of 1.48.
With U13C U39A U115A the self-cleavage was 1.63.
U13C U39A U115A U132C A141G showed a self-cleavage of 2.18.
With U13C U39C A69G C145U the self-cleavage was 0.
Work on U13C U39C G70A A124G A136G yielded a self-cleavage of 0.
For U13C U39C U45C C99U, the self-cleavage was 0.33.
U13C U39C U47C A57G C116U C128U gave a self-cleavage of 0.
With U13C U39C U102A U134C the self-cleavage was 1.35.
U13C U45A A78G U87A A124U showed a self-cleavage of 0.1.
For U13C U45A U73C U96C U134C A140G, the self-cleavage was 0.
U13C U45C A59G U115A gave a self-cleavage of 0.
In the case of U13C U45C A69G, the self-cleavage is reported as 0.63.
Variant U13C U45C A117G U132C has a self-cleavage of 0.
U13C U45C G127A showed a self-cleavage of 1.43.
Variant U13C U45C U62C A117C U132C has a self-cleavage of 0.
U13C U45C U119A U132G showed a self-cleavage of 0.88.
For U13C U45G C131U U143A, the self-cleavage was 1.39.
U13C U46A U134C A142G gave a self-cleavage of 1.76.
Variant U13C U46C A59G A124G U143C has a self-cleavage of 0.68.
U13C U46C A59G A136G showed a self-cleavage of 0.22.
U13C U46C A67G G122U gave a self-cleavage of 0.95.
U13C U46C A67G U73A A140G gave a self-cleavage of 1.28.
Variant U13C U46C U73A has a self-cleavage of 1.7.
Work on U13C U46C U102C yielded a self-cleavage of 0.45.
With U13C U46G U112C the self-cleavage was 2.14.
U13C U47A A67G A94C gave a self-cleavage of 0.22.
U13C U47A G58A A79G U109A U132C showed a self-cleavage of 0.11.
U13C U47A U62A U104C A124G gave a self-cleavage of 0.12.
For U13C U47A U73C C113U A136G A141G, the self-cleavage was 1.63.
U13C U47C A64G gave a self-cleavage of 0.
For U13C U47C C51U A57G A136G, the self-cleavage was 1.53.
U13C U47C U62C U81C A124U showed a self-cleavage of 0.
Variant U13C U47C U96A U115C G126A has a self-cleavage of 0.
In the case of U13C U52A A78G A92G, the self-cleavage is reported as 0.18.
Variant U13C U52A A138G has a self-cleavage of 1.58.
With U13C U52A U115C the self-cleavage was 1.46.
For U13C U52C A141G, the self-cleavage was 0.99.
U13C U52C G53U A121G showed a self-cleavage of 1.3.
In the case of U13C U52C G70U, the self-cleavage is reported as 0.1.
Variant U13C U52C U62C U96A has a self-cleavage of 0.
For U13C U62A A65G A140U, the self-cleavage was 0.14.
For U13C U62A A67U A121C, the self-cleavage was 0.03.
U13C U62A A138G A142G gave a self-cleavage of 0.06.
In the case of U13C U62A U73A, the self-cleavage is reported as 0.11.
With U13C U62C A67U U102C the self-cleavage was 0.
For U13C U62C A77U A141G, the self-cleavage was 0.16.
Work on U13C U62G U81A U102C yielded a self-cleavage of 0.25.
For U13C U73A A78U A107U U109C A117G U119C, the self-cleavage was 0.46.
With U13C U73A A92G the self-cleavage was 0.16.
Variant U13C U73A C90U U102C G126U has a self-cleavage of 0.08.
U13C U73A U119C showed a self-cleavage of 1.87.
Variant U13C U81A C120A has a self-cleavage of 1.85.
With U13C U81A U87A A117U the self-cleavage was 0.17.
In the case of U13C U81C U102C A129U, the self-cleavage is reported as 0.69.
Variant U13C U85C A121G has a self-cleavage of 0.37.
Work on U13C U85C U112C yielded a self-cleavage of 0.
For U13C U85C U115A U119C, the self-cleavage was 0.56.
U13C U87A U112C A142G showed a self-cleavage of 0.1.
Variant U13C U87A U119G has a self-cleavage of 0.16.
With U13C U87A U134C A136G the self-cleavage was 0.14.
For U13C U87C U96A U115C, the self-cleavage was 0.26.
U13C U87C U96C showed a self-cleavage of 0.
With U13C U87C U112C the self-cleavage was 0.57.
In the case of U13C U91A A92U A107U, the self-cleavage is reported as 1.17.
Variant U13C U91C G144A has a self-cleavage of 1.12.
With U13C U91C U115A the self-cleavage was 0.91.
Work on U13C U100A A107G U132C yielded a self-cleavage of 1.08.
Variant U13C U100A U115C has a self-cleavage of 2.3.
With U13C U100C U108C the self-cleavage was 2.3.
Work on U13C U100C U108C U143G yielded a self-cleavage of 2.3.
U13C U100C U134C gave a self-cleavage of 0.84.
With U13C U102C U108C the self-cleavage was 0.84.
For U13C U104A A124G C133U, the self-cleavage was 0.2.
Work on U13C U104C A138G yielded a self-cleavage of 2.57.
U13C U108C U115C showed a self-cleavage of 0.
In the case of U13C U109C A136G, the self-cleavage is reported as 1.99.
U13C U109C U112C A136G gave a self-cleavage of 2.91.
Work on U13C U112A A142G yielded a self-cleavage of 1.05.
For U13C U112C A141G, the self-cleavage was 1.32.
With U13C U112C U115C the self-cleavage was 0.57.
In the case of U13C U115A A117G, the self-cleavage is reported as 1.7.
For U13C U115A A141G, the self-cleavage was 1.48.
U13C U115C A124G gave a self-cleavage of 0.56.
For U13C U115C G135A, the self-cleavage was 2.15.
Work on U13C U115C U119A U132C yielded a self-cleavage of 2.04.
U13C U119C A124U U132A gave a self-cleavage of 1.41.
Work on U13C U119C A129U U143A yielded a self-cleavage of 2.47.
Variant U13C U119C A136G has a self-cleavage of 0.
Variant U13C U119C A136U has a self-cleavage of 2.36.
Variant U13C U119C A140U has a self-cleavage of 1.87.
U13C U130C A138G A142G showed a self-cleavage of 2.63.
U13C U130C U134C gave a self-cleavage of 1.17.
For U13C U134G A142G, the self-cleavage was 1.75.
In the case of U13G A30G G49A, the self-cleavage is reported as 0.81.
With U13G A42G A43G A77U A140G the self-cleavage was 0.6.
U13G A42G A69G U81C gave a self-cleavage of 0.
Variant U13G A42G U45C A94G has a self-cleavage of 0.
For U13G A57G A69C U130C, the self-cleavage was 0.31.
For U13G A59C U119C, the self-cleavage was 1.61.
For U13G A78G A136G, the self-cleavage was 1.68.
Variant U13G A79U U81C G93A U96A has a self-cleavage of 0.35.
For U13G C56G U96C A140G, the self-cleavage was 0.1.
Variant U13G G55U U73G U134C has a self-cleavage of 0.23.
With U13G U14C A79G the self-cleavage was 1.41.
Work on U13G U20A U143C yielded a self-cleavage of 0.59.
In the case of U13G U29A C90A A136G, the self-cleavage is reported as 0.02.
U13G U73A A129G A138G showed a self-cleavage of 1.58.
Variant U13G U81C U132A has a self-cleavage of 1.23.
For U13G U132C A141G, the self-cleavage was 0.65.
Variant U14A A22U A64G A69C U112A has a self-cleavage of 0.45.
U14A A24G A59U A121U A142G showed a self-cleavage of 0.93.
U14A A30G U39C gave a self-cleavage of 0.
U14A A31U A124G showed a self-cleavage of 1.08.
Variant U14A A42G A78G has a self-cleavage of 0.68.
Work on U14A A42U U85C yielded a self-cleavage of 0.02.
U14A A43U A94G gave a self-cleavage of 0.26.
With U14A A50G A65G C84U A140G the self-cleavage was 0.06.
U14A A50G A94G gave a self-cleavage of 0.
Variant U14A A59G C63U has a self-cleavage of 0.03.
For U14A A59G C113G A117G U132A, the self-cleavage was 0.
For U14A A59U U91C, the self-cleavage was 0.27.
Work on U14A A64G A107U U115C yielded a self-cleavage of 0.18.
With U14A A64U A67G the self-cleavage was 0.08.
Work on U14A A65C A124G yielded a self-cleavage of 0.06.
Work on U14A A69U A94G A129G A140G yielded a self-cleavage of 0.07.
U14A A77G A129G showed a self-cleavage of 2.63.
In the case of U14A A77G U119C, the self-cleavage is reported as 2.66.
U14A A77U A138G gave a self-cleavage of 1.13.
Work on U14A A78G A107G yielded a self-cleavage of 1.67.
With U14A A92G U102C U132C U143C the self-cleavage was 0.
U14A A107G C113A gave a self-cleavage of 0.77.
Work on U14A A138G U143C yielded a self-cleavage of 1.23.
Work on U14A C16U U119C yielded a self-cleavage of 1.66.
Work on U14A C17U U26C U47A U108C yielded a self-cleavage of 0.55.
For U14A C19U A24G A77C, the self-cleavage was 0.27.
For U14A C19U U115C A124G, the self-cleavage was 1.04.
Variant U14A C84U A117C has a self-cleavage of 0.18.
For U14A G32A A140U, the self-cleavage was 0.53.
U14A G35U A59G U112A A121U gave a self-cleavage of 0.04.
With U14A G88A U112C A121U the self-cleavage was 0.03.
Work on U14A U15A U108C yielded a self-cleavage of 1.4.
U14A U15C U132G showed a self-cleavage of 2.92.
U14A U20A A50G gave a self-cleavage of 0.
Work on U14A U20A A65G U130A U134A yielded a self-cleavage of 0.07.
Variant U14A U20A A136G has a self-cleavage of 1.29.
Work on U14A U20C A69G yielded a self-cleavage of 0.
Variant U14A U20C U23C G36A G70U C113U A124G has a self-cleavage of 0.09.
With U14A U23A U108C C113U A141G the self-cleavage was 1.94.
U14A U26A A94U A136G gave a self-cleavage of 0.37.
Work on U14A U26A U45C yielded a self-cleavage of 0.55.
In the case of U14A U26C A59U A117G A129G A138G, the self-cleavage is reported as 0.92.
With U14A U29A A42G U47G A65G A78U U109C the self-cleavage was 0.
U14A U29C U73C gave a self-cleavage of 1.31.
U14A U39A A43G U104C showed a self-cleavage of 1.35.
For U14A U39A G60A A94G, the self-cleavage was 0.42.
In the case of U14A U39A U45C G114A, the self-cleavage is reported as 1.29.
